The inconclusive results got no clear call from the source; some entries with a clear call stand among them for comparison. A potency beside an inconclusive call is a rough fit, not a confirmed value. Active and inactive are the calls of the source. Calls follow the shape of the dose curve; as a rule, active = well fitted activation curve with a large enough effect in the signal ratio, with a control signal flat (not every such curve was filed as active); inconclusive = small, poorly fitted or top-dose-only effect, or effect the other way, or a change in a side signal; inactive = flat fitted curve, though single readings scatter; the % refers to the signal ratio.
Test: qHTS Assay for Identification of Small Molecule Agonists for Hypoxia Response Element Signaling Pathway (AID 914); as to activation: top concentration of the series differs between compounds; % of control where 0% means no effect
Conditions: ME-180 (cervical carcinoma) HRE-bla reporter, beta-lactamase ratio, CoCl2, 17 h; activation: active compounds read high
Procedure, shortened: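 AC50 values come from titration-series %Activity, taken as the 460/530nm ratio of CCF4 fluorescence (excitation 405nm). CellSensor HRE-bla ME-180 cells were treated 17 hours at 37 C with compound plus an EC50 level of CoCl2.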
Potency is read from the fitted curve at half-maximal effect; tags tell the direction and shape of the fitted curve or compound fluorescence and quenching.

Compound | activation | Potency
O=C1C2=CC[C@H]3C(=O)N(Cc4ccc5c(c4)OCO5)C(=O)[C@@H]3[C@@H]2[C@H](O)[C@@H]2O[C@H]12 | inconclusive: -84.9% | –
O=C(Cc1ccc(Cl)cc1)Nc1cccc(-c2nnc(-c3ccco3)o2)c1 | inconclusive: -40.1% | –
O=S(CCc1ccncc1)Cc1ccccc1 (configuration not stated) | inconclusive: 16.6% | –
CCOc1nnnc2c1sc1nc(N3CCOCC3)c3c(c12)CC(C)(C)OC3 | – | inconclusive: 12.6 µM [activator, partial curve]
COc1ccccc1Cn1c2nc3ccccc3nc2c2c(=O)n(CC(C)C)cnc21 | – | inconclusive: 12.6 µM [inhibitor, single point]
COc1ccc2c(c1)CCc1c(-c3noc4c3CCc3cc(OC)ccc3-4)noc1-2 | inconclusive: -6.9% | –
COc1ccc(-c2nnc3sc(-c4c(OC)cccc4OC)nn23)cc1 | – | inconclusive: 1.58 µM [inhibitor, full curve, poor fit]
COC(=O)COc1ccc(Oc2nc(SC)nc(N(C)C)n2)nn1 | inconclusive: -6.23% | –
CC(=O)/C(C#N)=C1\NC(=O)C(Cc2ccccc2)S1 (configuration not stated) | – | inconclusive: 1 µM [inhibitor, full curve]
CC(C)C(=O)Cc1ccc2ccccc2n1 | inconclusive: -8.37% | –
O=C(O)C1(Nc2ccc(Cl)cc2)CCCC1 | inactive: 0.664% | –
C/C(=N/O)[C@@H]1C[C@H](CC(=O)O)C1(C)C | inconclusive: 1.17% | –
O=c1n(Cc2cc3c(cc2Cl)OCO3)c(=O)n2n1CC[C@H]1/C(=N\OCc3ccccc3)[C@H]3O[C@@H]3[C@@H](O)[C@@H]12 | – | inconclusive: 5.01 µM [inhibitor, single point]
CC(C)(C)NCc1cc2ccccc2[nH]c1=O | inactive: -14.6% | –
S=c1[nH]nc(-c2ccco2)n1Cc1ccccc1 | inconclusive: -36.8% | –
CCCCCOC(=O)Cc1c(C)nc(-c2ccccc2)[nH]c1=O | inconclusive: -0.0183% | –
O=C(NC1CCCCC1)[C@H](O)[C@@H](O)C(=O)NC1CCCCC1 | inactive: 12.1% | –
CCN(CC(=O)O)CC(=O)O | inconclusive: 7.1% | –
CN1CCN(c2cc(-c3ccccc3Cl)ncn2)CC1 | inactive: 18% | –
CCCC(CCC(=O)Nc1ccc(C(=O)OCC)cc1)C(=O)O (configuration not stated) | inactive: 10% | –
O=[N+]([O-])c1cccc(/C=N\NC2=CS(=O)(=O)C=C2)c1 | inactive: 1.06% | –
CCN(CC)CCN1C(=O)C(=O)/C(=C(/O)c2ccc(Cl)cc2)C1c1ccncc1 (configuration not stated) | inconclusive: 7.42% | –
COc1ccc(/C=C(/C#N)c2cccnc2)cc1OC | – | inconclusive: 0.501 µM [inhibitor, partial curve]
CCCCOc1ccccc1P(=O)(O)CP(=O)(c1ccccc1)c1ccccc1 | – | inconclusive: 3.98 µM [inhibitor, partial curve]
Oc1ccc2ccccc2c1/C=N/n1cnnc1 | – | inconclusive: 10 µM [inhibitor, partial curve]
Cc1ncc(CSc2ccccc2N)c(CO)c1O | – | inconclusive: 0.199 µM [inhibitor, single point]
O=C(CN1C(=O)c2ccccc2C1=O)NCc1ccccn1 | inconclusive: 18.5% | –
